# The list shows a part of the results.
# What was measured:
# Experiment in all cases: glycan array binding signal (z-score within array); higher = stronger binding
# Settings in all cases: glycan notation: IUPAC condensed, linker removed
# [1] = target: Fuc(a1-2)Gal
# Method in brief: (§1)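 Arrays were curated from the Consortium for Functional Glycomics database, 3228 in total, and kept only where the protein sequence was available. Binding is expressed as a within-array Z-score. This score was averaged across arrays of the same protein sequence at different concentrations or buffers and across linkers, and negative values can be read as non-binding.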
# [2] = target: Fuc(a1-2)Gal(b1-3)GalNAc
# Method in brief: as §1
# [3] = target: Fuc(a1-2)Gal(b1-3)GalNAc(a1-3)[Fuc(a1-2)]Gal(b1-4)Glc
# Method in brief: as §1
# [4] = target: Fuc(a1-2)Gal(b1-3)GalNAc(a1-3)[Fuc(a1-2)]Gal(b1-4)GlcNAc
# Method in brief: as §1
# [5] = target: Fuc(a1-2)Gal(b1-3)GalNAc(b1-3)Gal
# Method in brief: as §1
# [6] = target: Fuc(a1-2)Gal(b1-3)GalNAc(b1-3)Gal(a1-4)Gal(b1-4)Glc
# Method in brief: as §1
# [7] = target: Fuc(a1-2)Gal(b1-3)GalNAc(b1-4)[Neu5Ac(a2-3)]Gal(b1-4)Glc
# Method in brief: as §1
# [8] = target: Fuc(a1-2)Gal(b1-3)GlcNAc
# Method in brief: as §1
# [9] = target: Fuc(a1-2)Gal(b1-3)GlcNAc(b1-2)Man(a1-3)[Fuc(a1-2)Gal(b1-3)GlcNAc(b1-2)Man(a1-6)]Man(b1-4)GlcNAc(b1-4)GlcNAc
# Method in brief: as §1
# [10] = target: Fuc(a1-2)Gal(b1-3)GlcNAc(b1-2)Man(a1-3)[Fuc(a1-2)Gal(b1-3)GlcNAc(b1-2)Man(a1-6)]Man(b1-4)GlcNAc(b1-4)[Fuc(a1-6)]GlcNAc
# Method in brief: as §1
# [11] = target: Fuc(a1-2)Gal(b1-3)GlcNAc(b1-3)Gal(b1-4)Glc
# Method in brief: as §1
# [12] = target: Fuc(a1-2)Gal(b1-3)GlcNAc(b1-3)GalNAc
# Method in brief: as §1
# [13] = target: Fuc(a1-2)Gal(b1-3)GlcNAc(b1-3)[Fuc(a1-2)Gal(b1-3)GlcNAc(b1-6)]GalNAc
# Method in brief: as §1
# [14] = target: Fuc(a1-2)Gal(b1-3)GlcNAc(b1-3)[Gal(b1-4)GlcNAc(b1-6)]Gal(b1-4)Glc
# Method in brief: as §1
# [15] = target: Fuc(a1-2)Gal(b1-3)GlcNAc(b1-3)[Neu5Ac(a2-6)Gal(b1-4)GlcNAc(b1-6)]Gal(b1-4)Glc
# Method in brief: as §1
# [16] = target: Fuc(a1-2)Gal(b1-3)GlcNAc6S
# Method in brief: as §1
# [17] = target: Fuc(a1-2)Gal(b1-3)[Fuc(a1-4)]GlcNAc
# Method in brief: as §1
# [18] = target: Fuc(a1-2)Gal(b1-3)[Fuc(a1-4)]GlcNAc(b1-2)Man(a1-3)[Fuc(a1-2)Gal(b1-3)[Fuc(a1-4)]GlcNAc(b1-2)Man(a1-3)]Man(b1-4)GlcNAc(b1-4)GlcNAc
# Method in brief: as §1
# [19] = target: Fuc(a1-2)Gal(b1-3)[Fuc(a1-4)]GlcNAc(b1-2)Man(a1-3)[Fuc(a1-2)Gal(b1-3)[Fuc(a1-4)]GlcNAc(b1-2)Man(a1-6)]Man(b1-4)GlcNAc(b1-4)[Fuc(a1-6)]GlcNAc(b1-4)[Fuc(a1-6)]GlcNAc
# Method in brief: as §1
# [20] = target: Fuc(a1-2)Gal(b1-3)[Fuc(a1-4)]GlcNAc(b1-3)[Fuc(a1-3)[Gal(b1-4)]GlcNAc(b1-6)]Gal(b1-4)Glc
# Method in brief: as §1
# [21] = target: Fuc(a1-2)Gal(b1-3)[Fuc(a1-4)]GlcNAc(b1-3)[Gal(b1-4)GlcNAc(b1-6)]Gal(b1-4)Glc
# Method in brief: as §1
# [22] = target: Fuc(a1-2)Gal(b1-4)Fuc(a1-3)]GlcNAc(b1-2)Man(a1-3)[Fuc(a1-2)Gal(b1-4)[Fuc(a1-3)]GlcNAc(b1-2)Man(a1-6)]Man(b1-4)GlcNAc(b1-4)GlcNAc
# Method in brief: as §1
# [23] = target: Fuc(a1-2)Gal(b1-4)Glc
# Method in brief: as §1
# [24] = target: Fuc(a1-2)Gal(b1-4)Glc6S
# Method in brief: as §1
# [25] = target: Fuc(a1-2)Gal(b1-4)GlcNAc
# Method in brief: as §1
# [26] = target: Fuc(a1-2)Gal(b1-4)GlcNAc(b1-2)Man
# Method in brief: as §1
# [27] = target: Fuc(a1-2)Gal(b1-4)GlcNAc(b1-2)Man(a1-3)[Fuc(a1-2)Gal(b1-4)GlcNAc(b1-2)Man(a1-6)]Man(b1-4)GlcNAc(b1-4)GlcNAc
# Method in brief: as §1
# [28] = target: Fuc(a1-2)Gal(b1-4)GlcNAc(b1-2)Man(a1-3)[Fuc(a1-2)Gal(b1-4)GlcNAc(b1-2)Man(a1-6)]Man(b1-4)GlcNAc(b1-4)[Fuc(a1-6)]GlcNAc
# Method in brief: as §1
# [29] = target: Fuc(a1-2)Gal(b1-4)GlcNAc(b1-2)[Fuc(a1-2)Gal(b1-4)GlcNAc(b1-4)]Man(a1-3)[Fuc(a1-2)Gal(b1-4)GlcNAc(b1-2)Man(a1-6)]Man(b1-4)GlcNAc(b1-4)GlcNAc
# Method in brief: as §1
# [30] = target: Fuc(a1-2)Gal(b1-4)GlcNAc(b1-3)Gal(b1-4)GlcNAc
# Method in brief: as §1
# [31] = target: Fuc(a1-2)Gal(b1-4)GlcNAc(b1-3)Gal(b1-4)GlcNAc(b1-2)Man(a1-3)[Fuc(a1-2)Gal(b1-4)GlcNAc(b1-3)Gal(b1-4)GlcNAc(b1-2)Man(a1-6)]Man(b1-4)GlcNAc(b1-4)GlcNAc
# Method in brief: as §1
# [32] = target: Fuc(a1-2)Gal(b1-4)GlcNAc(b1-3)Gal(b1-4)GlcNAc(b1-3)Gal(b1-4)GlcNAc
# Method in brief: as §1
# [33] = target: Fuc(a1-2)Gal(b1-4)GlcNAc(b1-3)GalNAc
# Method in brief: as §1
# [34] = target: Fuc(a1-2)Gal(b1-4)GlcNAc(b1-3)[Fuc(a1-2)Gal(b1-4)GlcNAc(b1-6)]GalNAc
# Method in brief: as §1
# [35] = target: Fuc(a1-2)Gal(b1-4)GlcNAc(b1-3)[Fuc(a1-3)[Gal(b1-4)]GlcNAc(b1-6)]Gal(b1-4)Glc
# Method in brief: as §1
# [36] = target: Fuc(a1-2)Gal(b1-4)GlcNAc(b1-6)GalNAc
# Method in brief: as §1
# [37] = target: Fuc(a1-2)Gal(b1-4)GlcNAc6S
# Method in brief: as §1
# [38] = target: Fuc(a1-2)Gal(b1-4)[Fuc(a1-3)]GlcNAc
# Method in brief: as §1
# [39] = target: Fuc(a1-2)Gal(b1-4)[Fuc(a1-3)]GlcNAc(b1-2)Man(a1-3)[Fuc(a1-2)Gal(b1-4)[Fuc(a1-3)]GlcNAc(b1-2)Man(a1-6)]Man(b1-4)GlcNAc(b1-4)[Fuc(a1-6)]GlcNAc
# Method in brief: as §1
# [40] = target: Fuc(a1-2)Gal(b1-4)[Fuc(a1-3)]GlcNAc(b1-2)[Fuc(a1-2)Gal(b1-4)[Fuc(a1-3)]GlcNAc(b1-4)]Man(a1-3)[Fuc(a1-2)Gal(b1-4)[Fuc(a1-3)]GlcNAc(b1-2)Man(a1-6)]Man(b1-4)GlcNAc(b1-4)GlcNAc
# Method in brief: as §1
# [41] = target: Fuc(a1-2)Gal(b1-4)[Fuc(a1-3)]GlcNAc(b1-3)Gal(b1-4)[Fuc(a1-3)]GlcNAc
# Method in brief: as §1
# [42] = target: Fuc(a1-2)Gal(b1-4)[Fuc(a1-3)]GlcNAc(b1-3)Gal(b1-4)[Fuc(a1-3)]GlcNAc(b1-3)Gal(b1-4)[Fuc(a1-3)]GlcNAc
# Method in brief: as §1
# [43] = target: Fuc(a1-2)Gal(b1-4)[Fuc(a1-3)]GlcNAc(b1-3)GalNAc
# Method in brief: as §1
# [44] = target: Fuc(a1-2)Gal(b1-4)[Fuc(a1-3)]GlcNAc(b1-3)[Neu5Ac(a2-6)Gal(b1-4)GlcNAc(b1-6)]Gal(b1-4)Glc
# Method in brief: as §1
# [45] = target: Fuc(a1-2)Gal3S(b1-4)GlcNAc
# Method in brief: as §1
binder,measurement,setting,value
DBA (Dolichos biflorus) (protein) ANIQSFSFKNFNSPSFILQGDATVSSGKLQLTKVKENGFPLRFPSGRAFYSSPIQIYDKFTGAVASWATSFTVKISAPSKASFADGIAFALVPVGSEPRRNGGYLGVFDSDVYNNSAQTVAVEFDTLSNSGWDPSMKHIGIDVNSIKSIATVSWDLANGENAEILITYNAATSLLVVSLVHPSRRTSYILSERVDITNELPEYVGVGFSATTGLSEGYIETHDVLSWSFASRLPDDSTAEPLDLARYLVRNVL,glycan array binding signal (z-score),[1],-0.069
same,glycan array binding signal (z-score),[2],-0.103
same,glycan array binding signal (z-score),[3],-0.133
same,glycan array binding signal (z-score),[4],-0.119
same,glycan array binding signal (z-score),[5],-0.1
same,glycan array binding signal (z-score),[6],-0.099
same,glycan array binding signal (z-score),[7],-0.141
same,glycan array binding signal (z-score),[8],-0.121
same,glycan array binding signal (z-score),[9],-0.054
same,glycan array binding signal (z-score),[10],-0.081
same,glycan array binding signal (z-score),[11],-0.131
same,glycan array binding signal (z-score),[12],-0.133
same,glycan array binding signal (z-score),[13],-0.041
same,glycan array binding signal (z-score),[14],-0.099
same,glycan array binding signal (z-score),[15],-0.152
same,glycan array binding signal (z-score),[16],-0.084
same,glycan array binding signal (z-score),[17],-0.142
same,glycan array binding signal (z-score),[18],-0.043
same,glycan array binding signal (z-score),[19],-0.09
same,glycan array binding signal (z-score),[20],-0.136
same,glycan array binding signal (z-score),[21],-0.087
same,glycan array binding signal (z-score),[22],-0.094
same,glycan array binding signal (z-score),[23],-0.076
same,glycan array binding signal (z-score),[24],-0.09
same,glycan array binding signal (z-score),[25],-0.05
same,glycan array binding signal (z-score),[26],-0.099
same,glycan array binding signal (z-score),[27],-0.048
same,glycan array binding signal (z-score),[28],0.259
same,glycan array binding signal (z-score),[29],0.014
same,glycan array binding signal (z-score),[30],-0.069
same,glycan array binding signal (z-score),[31],0.098
same,glycan array binding signal (z-score),[32],0.028
same,glycan array binding signal (z-score),[33],-0.104
same,glycan array binding signal (z-score),[34],-0.071
same,glycan array binding signal (z-score),[35],-0.102
same,glycan array binding signal (z-score),[36],-0.018
same,glycan array binding signal (z-score),[37],0.012
same,glycan array binding signal (z-score),[38],0.083
same,glycan array binding signal (z-score),[39],0.119
same,glycan array binding signal (z-score),[40],-0.044
same,glycan array binding signal (z-score),[41],-0.09
same,glycan array binding signal (z-score),[42],0.167
same,glycan array binding signal (z-score),[43],0.449
same,glycan array binding signal (z-score),[44],-0.066
same,glycan array binding signal (z-score),[45],-0.041
